In article PMC4336329 (PLoS ONE, 2015):
The campaign covered roughly 310,000 compounds. About 2,200 (0.71%) showed an effect of 50% or more. Effects have a minus sign here. Some of the results follow.

Target: human ether-à-go-go-related gene (hERG) potassium channel (human, UniProt Q12809)
Test: primary screen, population patch clamp on CHO cells stably expressing hERG

Sequence of human ether-à-go-go-related gene (hERG) potassium channel (Q12809 whole entry, looked up): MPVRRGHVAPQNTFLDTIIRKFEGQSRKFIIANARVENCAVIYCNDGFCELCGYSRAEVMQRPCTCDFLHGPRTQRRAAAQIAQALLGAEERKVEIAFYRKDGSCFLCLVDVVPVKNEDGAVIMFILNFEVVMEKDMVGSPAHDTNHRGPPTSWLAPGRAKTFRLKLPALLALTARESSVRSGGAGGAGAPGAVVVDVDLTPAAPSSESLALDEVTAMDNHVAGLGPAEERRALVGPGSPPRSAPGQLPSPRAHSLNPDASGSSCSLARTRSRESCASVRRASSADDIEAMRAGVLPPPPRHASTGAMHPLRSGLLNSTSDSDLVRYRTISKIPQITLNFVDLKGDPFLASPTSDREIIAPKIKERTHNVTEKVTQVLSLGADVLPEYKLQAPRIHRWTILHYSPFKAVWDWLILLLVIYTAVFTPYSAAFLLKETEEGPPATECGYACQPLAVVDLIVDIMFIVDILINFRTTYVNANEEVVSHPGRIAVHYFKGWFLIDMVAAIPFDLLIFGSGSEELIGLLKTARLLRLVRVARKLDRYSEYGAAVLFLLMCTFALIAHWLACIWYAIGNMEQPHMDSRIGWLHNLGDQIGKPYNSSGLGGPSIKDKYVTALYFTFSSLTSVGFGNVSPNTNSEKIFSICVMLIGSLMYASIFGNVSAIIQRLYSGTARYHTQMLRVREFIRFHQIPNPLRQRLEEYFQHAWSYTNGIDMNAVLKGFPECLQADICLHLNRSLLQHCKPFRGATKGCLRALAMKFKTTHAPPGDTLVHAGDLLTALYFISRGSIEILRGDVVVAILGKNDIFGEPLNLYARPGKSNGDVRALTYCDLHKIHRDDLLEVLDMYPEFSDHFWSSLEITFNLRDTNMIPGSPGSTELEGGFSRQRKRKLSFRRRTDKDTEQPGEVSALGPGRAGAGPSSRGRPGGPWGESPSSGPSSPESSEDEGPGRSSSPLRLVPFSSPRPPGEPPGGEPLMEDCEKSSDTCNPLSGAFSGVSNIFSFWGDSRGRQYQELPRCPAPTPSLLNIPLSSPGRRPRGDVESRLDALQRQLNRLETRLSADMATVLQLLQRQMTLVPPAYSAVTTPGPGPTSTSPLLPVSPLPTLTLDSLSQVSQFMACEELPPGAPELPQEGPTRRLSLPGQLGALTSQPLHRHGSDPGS

Compound	hERG current change (%, negative = inhibition) at 1uM [%]
Cc1cc(S(=O)(=O)ON2C(=O)c3ccccc3C2=O)ccc1F	13.7
Cc1cc(C)c(NS(=O)(=O)c2cccc3cccnc23)c(C)c1	-2.12
Cc1ccc2c(CN3CC(C)CC(C)C3)cc(=O)oc2c1C (stereo not shown)	9.29
O=C(c1cc2c(s1)-c1ccccc1OC2)N1CCN(c2ccccc2)CC1	12.4
CC1CCCCN1S(=O)(=O)c1ccc(NC(=O)c2cccc(-n3cnnn3)c2)cc1 (stereo not shown)	-0.404
CNC(=O)c1ccccc1NC(=O)c1c(O)c2c([nH]c1=O)CCCC2	8.8
Cc1ccc(C(C)(O)CS(=O)(=O)Cc2ccccc2Cl)cc1 (stereo not shown)	16.1
CC(C)=CCCC1=CCC2C(=O)NNC(=O)C2C1 (stereo not shown)	6.59
COC(=O)c1nn(C23CC4CC(CC(C4)C2)C3)c2c1C(=O)N(c1ccc(F)cc1)C2=O	-2.06
CCCCNC(=O)N1CCN(c2ccccc2OCC)CC1	6.8
Cc1ccc(C(=O)NCC(=O)OC(C)C(=O)Nc2ccc(N3CCOCC3)cc2)s1 (stereo not shown)	0.838
Cc1ccc(NC(=O)c2c3c(nc4ccccc24)CCC3)cc1	7.04
CC(C)(C)c1nc(SCC(=O)NCc2ccco2)c2ccccc2n1	9.84
Cc1ccc(C)c(NC(=S)N(CCc2nc3cc(C)c(C)cc3[nH]2)Cc2cccnc2)c1	20.1
Cc1ccc(C)c(N(CC(=O)NC(C)(C)C)C(=O)CNC(=O)c2cccs2)c1	13
Cc1cc(NC(=O)COc2ccccc2C)ccc1NC(=O)c1cccs1	9.14
COc1ccc(S(=O)(=O)N2CCOCC2)cc1NC(=O)Cc1c(Cl)cccc1Cl	10.2
O=C(Cc1ccc(F)cc1)N/N=C/c1ccccn1	10.8
c1ccc2[nH]c(NN=C3CCCCCC3)nc2c1	9.84
COc1ccc(NC(=O)NNC(=O)c2ccc(-c3ccccc3)cc2)c(OC)c1	-11.1
CC(C)(C)NC(=O)COC(=O)c1cc(Br)ccc1Cl	-4.39
CCC1CCCCN1Cc1ccc(OC)c(OC)c1 (stereo not shown)	-0.574
Cc1ccc(-c2csc(NC(=O)CSc3nc4ccccc4c(=O)n3CCCN(C)C)n2)cc1	2.76
CCN(CC)C(=O)CSc1nnc(-c2ccccn2)n1-c1ccccc1OC	18.4
N#Cc1cc(N)ccc1Sc1ccccc1	14.9
